In PubChem BioAssay AID588855 (National Center for Advancing Translational Sciences (NCATS), 2011):
About 5,000 (1.2%) of roughly 410,000 compounds were called active. The shares of active, inactive and inconclusive entries below differ from those in the screen. Calls come from the whole dose curve; as a rule, active = well fitted inhibition curve with a large enough effect; inconclusive = small, poorly fitted or top-dose-only effect; inactive = no such curve, though single readings can be large or run the other way. A potency beside an inconclusive call is a rough fit, not a confirmed value.

assay: qHTS for Inhibitors of TGF-b; settings: HepG2 CAGA-GFP TGF-b/SMAD3 reporter, GFP fluorescence, 18 h, TGF-beta stimulated, 500 pg/mL final; series mostly up to 46.1 µM; note: nearly all actives have a fitted effect of over 65% in size
In short: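 Per well, imaged GFP fluorescence of HEPG2 CAGA-GFP cells gives the signal; cells get compound, then TGF-beta (500 pg/mL final), 18 h at 37 degrees C; %Activity versus -TGF-beta and +DMSO controls.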
Potency is the fitted concentration of half-maximal effect; tags give direction and shape of the fitted curve.

SMILES | Potency
COc1ccc(-c2nnc(SCC(=O)N(C)Cc3ccccc3)o2)cc1OC | inconclusive: 0.631 µM [inhibitor, full curve, poor fit]
O=C(O)c1cc(/C=C/C(=O)c2cc(F)ccc2O)c2c(c1)COCO2 | inconclusive: 3.16 µM [inhibitor, single point]
CCCc1cc(C(=O)Cc2nc3ccccc3s2)c(O)cc1O | inconclusive: 35.5 µM [inhibitor, single point]
N/C(Cc1ccc(Cl)cc1)=N\OC(=O)Cc1ccc([N+](=O)[O-])cc1 | inconclusive: 15.8 µM [inhibitor, single point]
Cc1ccc2cccc(N=Cc3c(C)[nH]n(-c4ccccc4)c3=O)c2n1 | inconclusive: 15.8 µM [inhibitor, single point]
O=S(=O)(Nc1cccc(-c2ccc(N3CCCC3)nn2)c1)c1ccc(F)c(C(F)(F)F)c1 | inactive
CCCCNC(=O)c1ccccc1Cl | inactive
CC1=C(n2nnc([N+](=O)[O-])n2)C(c2cccnc2)C(C#N)=C(N)O1 (centres undefined) | inconclusive: 35.5 µM [inhibitor, single point]
COc1cc(OC)c(N2CC(C(=O)Nc3cc(Cl)ccc3N3CCOCC3)CC2=O)cc1Cl (centres undefined) | inconclusive: 31.6 µM [inhibitor, single point]
CCC(C)[C@H](Nc1nc(-c2ccccc2)nc2c1oc1ccccc12)C(=O)O (some centres undefined) | inconclusive: 12.6 µM [inhibitor, partial curve, poor fit]
CN(C)S(=O)(=O)c1cccc(NC(=S)N/N=C/c2ccc(O)c(O)c2O)c1 | inconclusive: 10 µM [inhibitor, single point]
NC(=O)C1CCN(C(=O)COc2cccc3cccnc23)CC1 | inactive
CS(=O)(=O)Nc1cccc(C2=NN(C(=O)c3ccccc3Cl)C(c3ccccc3O)C2)c1 (centres undefined) | inconclusive: 14.1 µM [inhibitor, single point]
Clc1cccc(N/N=C/c2ccc(N3CCOCC3)cc2)c1 | inactive
Cc1sc2ncnc(OCC(=O)N3CC(=O)Nc4ccccc43)c2c1C | inconclusive: 6.31 µM [inhibitor, single point]
COC(=O)c1cc(C#N)c(NCc2ccccc2)nc1C | inconclusive: 2.82 µM [inhibitor, single point]
CS(=O)(=O)c1ccc(Cl)c(NC(=O)c2cc(S(=O)(=O)N3CCOCC3)ccc2N2CCCC2)c1 | inactive
COc1cc(/C=C2\NC(=O)NC2=O)cc(Br)c1OC | inconclusive: 3.98 µM [inhibitor, single point]
COc1ccc(-c2cc(C(=O)NCC(c3ccccc3)N(C)C)c3ccccc3n2)cc1OC (centres undefined) | inactive
O=C(CN1CCCCCC1)NCCN1C(=O)S/C(=C\c2ccccc2Cl)C1=O | inconclusive: 0.708 µM [inhibitor, partial curve, poor fit]
Cc1cccc(Oc2ccc3c(c2)Oc2ccccc2NC3=O)c1 | inconclusive: 7.94 µM [inhibitor, partial curve, poor fit]
Cc1ccc(NC(=O)Cn2cc(S(=O)(=O)N3CCC(C)CC3)c3ccccc3c2=O)c(Br)c1 | inconclusive: 3.55 µM [inhibitor, single point]

SMILES | Potency
O=C1CC(c2cccc(Cl)c2)c2cc3c(cc2N1)CCC3 (centres undefined) | active: 10 µM
Cc1ccc(-c2cc(C(F)F)nc(S(C)(=O)=O)n2)cc1 | inconclusive: 20 µM [inhibitor, single point]
COc1ccc(C(=O)Nc2cc(C)nn2-c2ccc(C)cc2)cc1 | inactive
CCC(=O)NNc1nc2c(Cl)cccc2s1 | inactive
CCOC(=O)c1c(NC(=O)CSc2nnc(CNc3ccc(OC)cc3)n2C)sc(C)c1C | inactive
C=CCc1ccc(OCCCOc2ccc(C)cc2OC)c(OC)c1 | inconclusive: 6.31 µM [inhibitor, single point]
c1ccc(N=c2nc(-c3ccccc3)n(-c3ccccc3)s2)cc1 | active: 2.82 µM
COC(=O)C(Cc1c[nH]c2ccccc12)NC(=O)c1ccccc1Br (centres undefined) | inconclusive: 17.8 µM [inhibitor, single point]
O=C(Oc1c(-c2ccccc2)c(=O)n2c3c(cccc13)CC2)c1ccccc1 | inconclusive: 35.5 µM [inhibitor, single point]
O=C(OCC(=O)N1CCN(c2ccccc2)CC1)c1cccc(Cl)c1 | inactive
CCCCn1c(-c2ccccc2)cnc1SCC(=O)NCCc1ccc(OC)c(OC)c1 | inconclusive: 14.1 µM [inhibitor, partial curve, poor fit]
CC(C)c1ccccc1NC(=S)NC(C)c1ccccc1 (centres undefined) | inconclusive: 7.08 µM [inhibitor, full curve]
Oc1ccc(/C=N/Nc2nc(-c3ccccc3F)nc3ccccc23)c(O)c1 | inconclusive: 3.55 µM [inhibitor, full curve, poor fit]
COc1ccc(C(C)=O)cc1Cn1c(C)c(C(=O)NCc2cccc(C(F)(F)F)c2)sc1=O | inconclusive: 8.91 µM [inhibitor, partial curve, poor fit]
CCCc1cc(=O)[nH]c(SCC(=O)Nc2cc(S(=O)(=O)N3CCCCC3)ccc2Cl)n1 | inconclusive: 15.8 µM [inhibitor, partial curve, poor fit]
CCC1SC(CC)C(=O)N(CC(=O)NCc2ccc(F)cc2)C1=O (centres undefined) | inconclusive: 22.4 µM [inhibitor, single point]
Cc1ccccc1C(=O)Nc1sc2c(c1C(=O)O)CCC2 | inactive
Nc1c(C(=O)c2ccccc2)sc2c1c(=O)[nH]c(=O)n2-c1ccccc1 | inconclusive: 1 µM [inhibitor, full curve, poor fit]
Cc1nc2c3ccccc3nc(NNC(=O)CCC(=O)N3CCN(c4cccc(C(F)(F)F)c4)CC3)n2n1 | inconclusive: 35.5 µM [inhibitor, single point]
O=C(Nc1ccc2c(c1)OCO2)C1CC(=O)N(c2ccc(F)cc2)C1 (centres undefined) | inconclusive: 11.2 µM [inhibitor, partial curve, poor fit]
COc1ccc(Cc2nc(=S)[nH][nH]2)cc1Br | inconclusive: 5.01 µM [inhibitor, full curve]
CN(Cc1ccc(OC(F)F)cc1)C(=O)c1ccc(S(=O)(=O)N(C)c2ccccc2)cc1 | inconclusive: 11.2 µM [inhibitor, partial curve]

SMILES | Potency
Cc1ccc([N+](=O)[O-])cc1NC(=O)CN(C1CCCCC1)S(=O)(=O)c1ccc(Cl)cc1 | inconclusive: 12.6 µM [inhibitor, single point]
CCCOc1ccc(-c2c(C(=O)N/N=C/c3cccs3)nnn2-c2nonc2N)cc1 | inconclusive: 35.5 µM [inhibitor, single point]
CCOC(=O)C1(CCOc2ccccc2)CCN(Cc2ccncc2)CC1 | inactive
CC(=O)c1c(C)n(C)c2ccc(O)cc12 | inconclusive: 1.78 µM [inhibitor, full curve]
COC(=O)c1nn(-c2ccccc2)c(Cl)c1/C=N/OCc1ccc(Cl)cc1Cl | inconclusive: 35.5 µM [inhibitor, single point]
CCCCOc1ccc(C(=O)N/C(=C\c2ccc(Br)cc2)C(=O)NC2CCCCC2)cc1 | inactive
CSCCC(NS(=O)(=O)c1ccc2c(c1)oc(=O)n2C)C(=O)N1CCN(c2ccc(F)cc2)CC1 (centres undefined) | inactive
Cc1ccccc1-c1nc2ccccc2c(=O)o1 | inactive
O=c1c2ccccc2sn1-c1ccc(Cl)c(S(=O)(=O)N2CCOCC2)c1 | inconclusive: 11.2 µM [inhibitor, partial curve, poor fit]
CCCCCCc1cc2cc(S(=O)(=O)c3ccc(C)cc3)c(=O)oc2cc1O | inconclusive: 22.4 µM [inhibitor, single point]
O=C(NCCCN1CCN(c2ccccc2F)CC1)c1cc2c(s1)-c1ccccc1OC2 | inconclusive: 12.6 µM [inhibitor, partial curve, poor fit]
O=C(O)c1ccc(NC(=O)c2cc3ccccc3o2)cc1 | inconclusive: 12.6 µM [inhibitor, single point]
COc1ccccc1N1CCN(C(=O)CSc2nnc(NC(=O)C3CC3)s2)CC1 | inconclusive: 1.78 µM [inhibitor, partial curve, poor fit]
CN(C)C(=O)CSc1nc2ccccc2c(=O)[nH]1 | inconclusive: 2.82 µM [inhibitor, partial curve, poor fit]
C#CCOCCOCCOCCNc1nc(N2CCN(C(=O)[C@H]([C@@H](C)CC)n3cc([C@@H](N)Cc4ccc(O)cc4)nn3)CC2)nc(N2CCN(C(=O)[C@H](Cc3cc4ccccc4[nH]3)n3cc([C@@H](N)CC(C)C)nn3)CC2)n1 | inconclusive: 12.6 µM [inhibitor, partial curve, poor fit]
CCN(CC)C(=O)[C@H]1C[C@H](CC(=O)NCCc2ccccn2)C(=O)N2CCc3c([nH]c4cc(-c5ccco5)ccc34)[C@]12C | inconclusive: 35.5 µM [inhibitor, single point]
COc1ccc(C2CC(c3ccc(OC)cc3OC(C)=O)=NN2C(=O)c2ccccc2)cc1 (centres undefined) | inconclusive: 2.82 µM [inhibitor, partial curve]
O=C1COC(c2ccccc2)C2CCCCN12 (centres undefined) | inconclusive: 6.31 µM [inhibitor, single point]
CCOc1cc(C(=O)OCc2cc(=O)n3nc(C4CC4)sc3n2)cc(OCC)c1OCC | inactive
O=C(OCc1cn([C@@H]2CN(C(=O)C3CCCCC3)[C@@H](c3ccccc3)C[C@H]2O)nn1)c1ccccc1 | inactive
